Reference: PubChem BioAssay AID588855 (National Center for Advancing Translational Sciences (NCATS), 2011)
Among all 410,000 compounds or so, about 5,000 (1.2%) were called active. The inconclusive results got no clear call from the source; some entries with a clear call stand among them for comparison. The call rests on the fitted dose curve; in most records, active means well fitted inhibition curve with a large enough effect; inconclusive means small, poorly fitted or top-dose-only effect; inactive means no such curve, though single readings can be large or run the other way. Potencies beside an inconclusive call are fits to weak or partial responses and may not hold up.

Assay: qHTS for Inhibitors of TGF-b; further: nearly all actives have a fitted effect of over 65% in size
Conditions: HepG2 CAGA-GFP TGF-b/SMAD3 reporter, GFP fluorescence, 18 h, TGF-beta stimulated, 500 pg/mL final; series mostly up to 46.1 µM; activity, negative = inhibition: at the top concentration
Summary of the method: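 Read-out: total well GFP (ex488/em500-530) summed from mean per-cell fluorescence. Cells: HEPG2 CAGA-GFP, 1% FBS DMEM, 18 h at 37 degrees C with 500 pg/mL final TGF-beta. Unstimulated wells served as the full-inhibition control; stimulated DMSO wells = 0%.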
On the % scale 0 is the no-effect control and ±100 the full control effect; potency means the concentration at half of the fitted maximal effect; tags describe the fitted curve by direction and shape.

| SMILES | Potency | activity, negative = inhibition |
| --- | --- | --- |
| Cc1[nH]c2ccccc2c1C(=O)COC(=O)c1c(-c2c(F)cccc2Cl)noc1C | active: 12.6 µM |  |
| COc1ccc(/C=C\C(=O)CC(O)(c2ccccc2)C(F)(F)F)cc1 (configuration not stated) | inconclusive: 14.1 µM [inhibitor, single point] |  |
| CCN(CC(=O)NCc1cccs1)C(=O)Cc1ccc(Cl)c(Cl)c1 | inconclusive: 0.708 µM [inhibitor, full curve, poor fit] |  |
| c1ccc(N2CCN(Cc3cccn3-c3nnc(N4CCN(C5CCCCC5)CC4)s3)CC2)cc1 |  | inactive: 0.197% |
| Cc1sc(NC(=O)c2ccco2)c(C(c2cccnc2)N2CCC(C)CC2)c1C (configuration not stated) | inconclusive: 11.2 µM [inhibitor, partial curve, poor fit] |  |
| CCC/C=C/c1ccc(CN2C(CC(C)C)C(=O)N(Cc3cn(CCC4OCCCO4)nn3)CCS2(=O)=O)cc1 (configuration not stated) | active: 12.6 µM |  |
| O=C(CN1CCN(Cc2cccc(Cl)c2)C1=O)NCc1ccc(F)cc1 | inconclusive: 35.5 µM [inhibitor, single point] |  |
| COc1ccc(OC)c2sc(N3CCN(C(=O)c4ccc5c(c4)CCCC5)CC3)nc12 | inconclusive: 10 µM [inhibitor, partial curve, poor fit] |  |
| COc1ccc(OCCCCc2c(C)n[nH]c2C)cc1 |  | inactive: -10.1% |
| COc1ccccc1C(=O)NCCn1cc(SCc2ccc(C)cc2)c2ccccc21 | inconclusive: 7.08 µM [inhibitor, full curve, poor fit] |  |
| Cc1ccc(NC(=S)NC(=O)C2CCCC2)cc1C |  | inactive: -26.9% |
| Cc1ccc(Nc2ncc(C(=O)N3CCN(c4ccc(F)cc4)CC3)c3ccccc23)cc1Cl | inconclusive: 8.91 µM [inhibitor, partial curve, poor fit] |  |
| Cc1cc(SCC(=O)c2cc(C)n(C)c2C)nc2ccccc12 | inconclusive: 17.8 µM [inhibitor, single point] |  |
| CN(C)CCCNS(=O)(=O)c1ccc(NC2CCCCCC2)c([N+](=O)[O-])c1 | active: 22.4 µM |  |
| CN(C)S(=O)(=O)N1CCC(Oc2cccc(C(=O)N3CCCCCC3)c2)CC1 | inconclusive: 15.8 µM [inhibitor, single point] |  |
| O=C(NCc1nc2ccccc2[nH]1)c1cccc(S(=O)(=O)N2CCOCC2)c1 |  | inactive: -0.305% |
| N/C(=N\N=C\c1cccc(O)c1)c1nonc1N | inconclusive: 3.16 µM [inhibitor, single point] |  |
| COC(=O)c1cc(C(=O)N2CCN(c3ccccc3OC)CC2)cc([N+](=O)[O-])c1 | inconclusive: 7.94 µM [inhibitor, partial curve] |  |
| CCOC(=O)C1=C(CNCc2ccc(C)cc2)NC(=O)NC1c1cc(C)ccc1C (configuration not stated) | inconclusive: 25.1 µM [inhibitor, partial curve, poor fit] |  |
| COc1ccc(NC(=O)c2c(NCc3ccc(N(C)C)cc3)sc3c2CCC3)cc1 |  | inactive: -11.6% |
| Cc1ccc(Nc2nc(Cl)c(C=O)s2)cc1 | inconclusive: 17.8 µM [inhibitor, single point] |  |
| N#CCC(=O)N/N=C/c1cn(Cc2ccc3ccccc3c2)c2ccccc12 | inconclusive: 0.631 µM [inhibitor, full curve] |  |
| CC(C)c1cccc(-c2csc(C(O)c3ccc(F)c(F)c3)n2)c1 (configuration not stated) | inconclusive: 22.4 µM [inhibitor, single point] |  |

| SMILES | Potency | activity, negative = inhibition |
| --- | --- | --- |
| Cc1ccc(NC2=C(CC(=O)O)C(c3ccc(F)cc3)N(c3ccc(C)cc3)C2=O)cc1 (configuration not stated) | inconclusive: 35.5 µM [inhibitor, single point] |  |
| CCN(CC)CCOC(=O)c1ccc(NC(=O)c2nn(C)c3c2COc2ccccc2-3)cc1 |  | inactive: -5.72% |
| O=C(c1cc(-c2cccc(Cl)c2)on1)N1CCN(c2ccccc2)CC1 | inconclusive: 12.6 µM [inhibitor, single point] |  |
| COc1ccc(N2CCN(C(=O)CCc3ccccc3OC)CC2)cc1 |  | inactive: 35.7% |
| O=C(/C=C/c1ccc(Cl)c([N+](=O)[O-])c1)Nc1cccc(NC(=O)c2ccco2)c1 | inconclusive: 35.5 µM [inhibitor, single point] |  |
| CN(C)C(=O)CCc1ccc2c3c([nH]c2c1)[C@]1(CCc2ccccc2)[C@@H](C(=O)N2CCCCC2)C[C@H](CC(=O)NC(C)(C)C)C(=O)N1CC3 | inconclusive: 35.5 µM [inhibitor, single point] |  |
| Cc1nnc2ccc(N3CCCCC3)nn12 |  | inactive: 1.69% |
| COc1ccc(C(=O)N2CCN(c3ncccn3)CC2)cc1[N+](=O)[O-] |  | inactive: -0.619% |
| O=C(O)c1cccc(-n2cnnn2)c1 | inconclusive: 35.5 µM [inhibitor, single point] |  |
| Cc1ccc(S(=O)(=O)c2nc(Nc3ccccc3)sc2Cl)cc1 | inconclusive: 35.5 µM [inhibitor, single point] |  |
| CC(CN1CCCCC1)OC(=O)C(C)(c1ccccc1)c1ccccc1 (configuration not stated) |  | inactive: -3.53% |
| C=C1CCC2C(C)(C)[C@@H](O)CC[C@@]2(C)[C@@H]1COc1ccc2ccc(=O)oc2c1 (some centres not stated) | inconclusive: 35.5 µM [inhibitor, single point] |  |
| O=C(Oc1ccc(OC(=O)c2ccco2)c(S(=O)(=O)c2ccc(Br)cc2)c1)c1ccco1 | inconclusive: 3.16 µM [inhibitor, single point] |  |
| CCC(C)Cn1c(/C=C/c2ccccc2)nc2ccccc21 (configuration not stated) | inconclusive: 12.6 µM [inhibitor, partial curve, poor fit] |  |
| Cc1cc(=O)n2[nH]c(-c3ccsc3-n3c(C)ccc3C)cc2n1 | inconclusive: 15.8 µM [inhibitor, single point] |  |
| CSc1ccc2c(c1)C(N1CCN(C)CC1)Cc1ccc(F)cc1S2 (configuration not stated) | inconclusive: 28.2 µM [inhibitor, single point] |  |
| CCCCN1CC[C@H]2C=CC[C@@H](C(=O)NCc3cccnc3)[C@H]2C1=O |  | inactive: -3.68% |
| O=C(CSc1oc(-c2ccco2)nc1S(=O)(=O)c1ccc(Br)cc1)c1ccccc1 |  | inactive: -21.6% |
| Cc1ccc(C)c(NC(=O)CN(C)C(=O)c2ccccc2Cc2ccccc2)c1 | inconclusive: 35.5 µM [inhibitor, single point] |  |
| CCC(=O)C1=C(c2ccc(Cl)cc2)N(C(=O)CC)n2c(C)nnc2S1 | active: 6.31 µM |  |
| Cc1ccccc1-c1cc2nc(NCc3ccccc3F)n(C)c(=O)c2s1 | inconclusive: 11.2 µM [inhibitor, single point] |  |
| CCCn1c(C(O)c2cccc(OC)c2)nc2ccccc21 (configuration not stated) |  | inactive: -0.445% |
| Cc1nn(C)cc1-c1n[nH]c(=S)n1-c1ccc(F)cc1 | inconclusive: 35.5 µM [inhibitor, single point] |  |

| SMILES | Potency | activity, negative = inhibition |
| --- | --- | --- |
| COc1ccccc1NC(=O)c1cc(S(=O)(=O)N2CCN(c3ccccc3Cl)CC2)ccc1F |  | inactive: 0.644% |
| CC(C)N(CCNCC(O)COc1ccc(C(C)(C)c2ccccc2)cc1)C(C)C (configuration not stated) | inconclusive: 35.5 µM [inhibitor, single point] |  |
| O=[N+]([O-])c1ccc(O)c(C2CCCCC2)c1 | inconclusive: 25.1 µM [inhibitor, single point] |  |
| Cc1cccc(N2C(=O)C(CC(=O)Nc3ccc(Cl)cc3)N(Cc3ccco3)C2=O)c1 (configuration not stated) | inconclusive: 35.5 µM [inhibitor, single point] |  |
| O=S1(=O)N=C(N/N=C/c2ccccn2)c2ccccc21 |  | inactive: -13% |
| O=S(=O)(Nc1cccc2ncccc12)c1cccc(C(F)(F)F)c1 | inconclusive: 3.55 µM [inhibitor, partial curve] |  |
| COc1ccccc1NC(=O)Cn1c(=O)n(CCc2c[nH]c3ccccc23)c(=O)c2cccnc21 |  | inactive: -0.205% |
| CCSc1nnc(NC(=O)CSc2nnc(-c3c[nH]c4ccccc34)n2CC)s1 | inconclusive: 8.91 µM [inhibitor, partial curve, poor fit] |  |
| COc1ccccc1NS(=O)(=O)c1ccc(N/N=C(\C)C(C)C)c([N+](=O)[O-])c1 | inconclusive: 22.4 µM [inhibitor, single point] |  |
| Cc1oc2ccc(O)c(CN3CCN(C)CC3)c2c1C(=O)Nc1cccc(Cl)c1C |  | inactive: -10.8% |
| CCC1=NN(C(=O)COc2ccccc2)C(O)(c2ccc(Br)cc2)C1 (configuration not stated) | inconclusive: 25.1 µM [inhibitor, single point] |  |
| COc1ccc(CCN2C(=O)CC(NC34CC5CC(CC(C5)C3)C4)C2=O)cc1OC (configuration not stated) |  | inactive: 4.64% |
| CCOc1ccc(-n2c(SCC(=O)N3CCC(C)CC3)nc3c([nH]c4ccccc43)c2=O)cc1 |  | inactive: 2.15% |
| CN1C=CC=C/C1=C1\SC(=S)N(C2CCCCC2)C1=O |  | inactive: 2.7% |
| Cc1ccc(C)c(N2CCN(C(=O)c3cc(C)nc4c3c(C)nn4-c3cccc(F)c3)CC2)c1 | inconclusive: 0.501 µM [inhibitor, full curve, poor fit] |  |
| CCNC(=O)COC(=O)c1ccc(NS(=O)(=O)c2ccc3c(c2)OCCO3)cc1 | inconclusive: 2 µM [inhibitor, partial curve, poor fit] |  |
| CCCCCc1cc(=O)oc2c(C(CCN3CCCC3)c3ccc4c(c3)OCO4)c(OC)cc(OC)c12 (configuration not stated) | inconclusive: 35.5 µM [inhibitor, single point] |  |
| CC(C)(C)Cc1c(-c2cccc(Cl)c2)nc2ccc(Cl)cn12 | inconclusive: 11.2 µM [inhibitor, partial curve] |  |
| CCN1C(=O)c2cccc3cccc1c23 | inconclusive: 3.55 µM [inhibitor, single point] |  |
| Cc1cc2cc(CCNC(=O)c3ccc(Br)o3)c(=O)[nH]c2cc1C | inconclusive: 5.01 µM [inhibitor, full curve] |  |
| COC(=O)c1cc(OC)c(OC)cc1NC(=S)N1CCN(C/C=C/c2ccccc2)CC1 | inconclusive: 0.112 µM [inhibitor, full curve, poor fit] |  |
